Assay results as given in PubChem BioAssay AID686979 (National Center for Advancing Translational Sciences (NCATS), 2013).
Where “and” joins values, the source holds several entries; their conditions need not be identical. Equal values may be shown once. The whole screen tested about 420,000 compounds, of which about 50,000 (12%) were called active. The shares of active, inactive and inconclusive entries below differ from those in the screen. Calls come from the whole dose curve; as a rule, active = well fitted inhibition curve with a large enough effect; inconclusive = small, poorly fitted or top-dose-only effect; inactive = flat fitted curve, though single readings scatter. A potency beside an inconclusive call is a rough fit, not a confirmed value.

Test: qHTS for Inhibitors of human tyrosyl-DNA phosphodiesterase 1 (TDP1): qHTS in cells in presence of CPT; note: nearly all actives have a fitted effect of over 55% in size
Settings: chicken DT40 Tdp1-/-;hTDP1 cells + 20 nM CPT, ATP luminescence, 48 h; series mostly up to 46.2 µM
Method in brief: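 Chicken DT40 Tdp1-/- cells complemented with human TDP1, 400 cells/well, exposed to compounds plus 20 nM camptothecin for at least 48 h at 37 C; viability read as ATP content by CellTiter-Glo luminescence.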
Potency is the fitted concentration of half-maximal effect; tags give direction and shape of the fitted curve.

Structure (SMILES) | Potency
CC12CN3CC(c4ccccc4)(CN(C1)C3c1ccc(O)cc1)C2=O (stereo not drawn) | inactive
COc1ccccc1Nc1ncnc2c1cnn2-c1cccc(C)c1 | inconclusive: 29.1 µM [inhibitor, single point]
CCOC(=O)N1CCC(NC(=O)c2cc(C(=O)Nc3ccc(OCC)cc3)ccc2CO)CC1 | inconclusive: 10 µM [inhibitor, partial curve]
CC(C)(C)NS(=O)(=O)c1ccc2nc(NC(=O)c3ccc(N4C(=O)CCC4=O)cc3)sc2c1 | inactive
COc1cccc(-n2nnnc2SCC(=O)Nc2ccccc2OC)c1 | inactive
CCN1CCN(C(=O)c2cc(-c3ccc(Cl)s3)nc3ccccc23)CC1 | inconclusive: 23.1 µM [inhibitor, single point]
O=C(/C=C/[C@H]1O[C@@H](n2ccc(=O)[nH]c2=O)[C@H](O)[C@@H]1O)NCCN1CCOCC1 | inactive
COc1ccccc1C(=O)C1CCCN(Cc2ccc3c(c2)OCCO3)C1 (stereo not drawn) | inconclusive: 25.9 µM [inhibitor, single point]
CCC(CC)c1nnc(NC(=O)c2ccc3ccccc3n2)s1 | inconclusive: 35.5 µM [inhibitor, single point]
COc1ccc(NS(=O)(=O)c2cc(NC(=O)c3ccc(Cl)cc3)ccc2N2CCOCC2)cc1 | active: 2.59 µM
CCOC(=O)c1cc(C(=O)NC(C)c2ccccc2)c(=O)[nH]c1C (stereo not drawn) | inactive
Cc1ccc(-c2cc(C(=O)Nc3cc([N+](=O)[O-])ccc3C)no2)cc1F | inactive
COC(=O)c1c(NC(=O)C(C)Oc2ccc(Cl)c(C)c2)sc(C)c1C (stereo not drawn) | inconclusive: 13 µM [inhibitor, partial curve]
COc1ccc(NC(=O)c2cc3ccccc3cc2OC)cc1OC | inconclusive: 29.1 µM [inhibitor, single point]
COC(=O)CSC1=C(C#N)C(c2ccsc2)CC(=O)N1 (stereo not drawn) | inconclusive: 29.1 µM [inhibitor, single point]
CCOC(=O)N1CCN(C(=O)C(=O)c2cn(CC(=O)N3CCCCCC3)c3ccccc23)CC1 | inactive
COc1ccc(S(=O)(=O)NCC(c2cccnc2)N2CCN(c3ccccc3)CC2)cc1C (stereo not drawn) | inconclusive: 18.4 µM [inhibitor, single point]
CCOC(=O)c1ccc(N2C(=O)c3n[nH]c(-c4cccs4)c3C2c2ccc(OCC)cc2)cc1 (stereo not drawn) | active: 29.1 µM
CCCOc1ccc(/C=N/NC(=O)c2ccc(Cn3cc([N+](=O)[O-])cn3)o2)cc1 | inactive
COc1ccc(CCNc2oc(/C=C/c3cc(OC)c(OC)c(OC)c3)nc2C#N)cc1OC | active: 13 µM
Cc1cccc(NC(=O)CN2CCN(C(=O)c3cc(C4CC4)nn3-c3ccccc3)CC2)c1C | inactive
COc1ccc(OC)c(CCNC(=O)CS(=O)(=O)Cc2nc(-c3cccc(Cl)c3)oc2C)c1 | inconclusive: 23.1 µM [inhibitor, single point]
O=C(COC(=O)CC1CC2CCC1C2)Nc1ccc(F)cc1Cl (stereo not drawn) | inactive
O=C(NC(NC(=S)N1CCOCC1)C(Cl)(Cl)Cl)c1cccc2ccccc12 (stereo not drawn) | inconclusive: 29.1 µM [inhibitor, single point]

Structure (SMILES) | Potency
Cc1ccc(C)c2sc(NC(=O)c3ccc(S(=O)(=O)N4CCC(C)CC4)cc3)nc12 | inconclusive: 29.1 µM [inhibitor, single point]
CC(/C=N/NC(=O)c1cc(-c2ccncc2)nc2ccccc12)=C\c1ccco1 | active: 2.59 µM
S=C(Nc1cccc2ccccc12)NN1CCCCCC1 | inconclusive: 23.1 µM [inhibitor, single point]
COc1cccc(-c2nc(Oc3cccc(C)c3C)c3ccccc3n2)c1O | inactive
CCCNC(=O)NNC(=O)c1cc(-c2ccc3c(c2)OCO3)nc2ccccc12 | inconclusive: 20.6 µM [inhibitor, single point]
CCN1C(=O)c2ccccc2S(=O)c2ccc(C(=O)NCc3ccc(OC)cc3)cc21 (stereo not drawn) | inactive and inconclusive: 25.9 µM [inhibitor, single point]
Cc1cc(C(=O)Nc2ccc(Nc3ccccc3)cc2)ccc1[N+](=O)[O-] | active: 3.26 µM
OC(C#CCN1CCCCC1)(c1ccccc1)c1ccccc1 | inconclusive: 25.9 µM [inhibitor, single point]
Cc1nc(N)sc1N=Nc1c(C)n(C)n(-c2ccccc2)c1=O | inconclusive: 9.2 µM [inhibitor, full curve, poor fit]
Cc1oc(-c2cccc(Cl)c2)nc1CSc1nncn2c1cc1occc12 | inactive
COc1cc(CN2CCCN(C)CC2)cc([N+](=O)[O-])c1O | inactive
O=C(NCc1ccccc1Cl)c1ccc2c(c1)NC(=O)C(CS(=O)(=O)Cc1ccc(F)cc1Cl)N2 (stereo not drawn) | inactive
COc1cc(OC)c(Nc2nc3ccccc3c3nncn23)cc1Cl | inconclusive: 16.4 µM [inhibitor, single point]
CCOc1ccc(-n2c(N)c(C(=O)NCc3ccco3)c3nc4ccccc4nc32)cc1 | active: 20.6 µM
O=C(Nc1ccc(N2CCOCC2)c(Cl)c1)C1CCCCC1 | active: 20.6 µM
CN(C)c1ccc(CN(Cc2ccco2)C(=O)c2ccc(C(C)(C)C)cc2)cc1 | active: 16.4 µM
Cc1ccc(-c2nc3nc(C)cc(N4CCN(c5cccc(C)c5C)CC4)n3n2)cc1 | inactive
Cc1ccc(NS(=O)(=O)c2ccccc2)c(NS(=O)(=O)c2ccccc2)c1 | inactive
CC(C)(C)c1ccc(C(=O)CSc2nc3ccccc3c(=O)[nH]2)cc1 | active: 2.82 µM
CCOC(=O)c1c(NC(=O)c2cc(C(C)C)on2)sc(C(C)=O)c1C | inconclusive: 29.1 µM [inhibitor, single point]
O=C(Nc1ccc(F)cc1)N(CCCN1CCOCC1)Cc1cc2cc3c(cc2[nH]c1=O)OCCO3 | active: 8.2 µM
Cc1ccc(S(=O)(=O)N2CCOCC2)cc1C(=O)NC1CCCC1 | inactive
CCOC(=O)c1c(C)oc2nc(C)nc(Nc3ccc(C)c(Cl)c3)c12 | inactive
Cc1cc(C)c2c(n1)nn1c(NCCN3CCOCC3)cc(C)nc21 | inactive
